This is one part of the list. Many values rest on one well or one pass, so single values are uncertain.
test system: WM3526; assay: cell count relative to DMSO control; melanoma cells; higher = more viable cells; conditions: library dose: standard library concentration; 72 h
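Also: cells treated in 1,536-well plates, then fixed and DAPI-stained, with nuclei counted from automated high-throughput microscope images.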

SMILES	cell count [%]
CC1(C)CCC(c2ccc(Cl)cc2)=C(CN2CCN(c3ccc(C(=O)NS(=O)(=O)c4ccc(N[C@H](CCN5CCOCC5)CSc5ccccc5)c(S(=O)(=O)C(F)(F)F)c4)cc3)CC2)C1 + CC(C)CCN1c2nc(Nc3cc(F)c(O)c(F)c3)ncc2N(C)C(=O)C1C [BID1870] (first compound 2 µM, partner dose 1 µM)	47.8
Cc1ccc(Nc2nccc(N(C)c3ccc4c(C)n(C)nc4c3)n2)cc1S(N)(=O)=O [Pazopanib] + COc1ccc2c(c1)CCC1C2CCC2(C)C(NCCCCCCN3C(=O)C=CC3=O)CCC12 [U73122] (first compound 2 µM, partner dose 2 µM)	81.6
CC1(C)CCC(c2ccc(Cl)cc2)=C(CN2CCN(c3ccc(C(=O)NS(=O)(=O)c4ccc(N[C@H](CCN5CCOCC5)CSc5ccccc5)c(S(=O)(=O)C(F)(F)F)c4)cc3)CC2)C1 + COc1ccc(-c2ccc3c(N4CCOCC4)nc(N4C[C@@H](C)O[C@@H](C)C4)nc3n2)cc1CO [KU0063794] (first compound 2 µM, partner dose 0.1 µM)	75.7
CC1(C)CCC(c2ccc(Cl)cc2)=C(CN2CCN(c3ccc(C(=O)NS(=O)(=O)c4ccc(N[C@H](CCN5CCOCC5)CSc5ccccc5)c(S(=O)(=O)C(F)(F)F)c4)cc3)CC2)C1 + CCN(CC)CCCCNc1ncc2cc(-c3cc(OC)cc(OC)c3)c(NC(=O)NC(C)(C)C)nc2n1 [PD173074] (first compound 2 µM, partner dose 0.5 µM)	79.4
CC1(C)CCC(c2ccc(Cl)cc2)=C(CN2CCN(c3ccc(C(=O)NS(=O)(=O)c4ccc(N[C@H](CCN5CCOCC5)CSc5ccccc5)c(S(=O)(=O)C(F)(F)F)c4)cc3)CC2)C1 + Oc1cc(-c2nc(-c3ccccc3)[nH]c2-c2ccncc2)ccc1Cl [L779450] (first compound 2 µM, partner dose 1 µM)	37.4
CC1(C)CCC(c2ccc(Cl)cc2)=C(CN2CCN(c3ccc(C(=O)NS(=O)(=O)c4ccc(N[C@H](CCN5CCOCC5)CSc5ccccc5)c(S(=O)(=O)C(F)(F)F)c4)cc3)CC2)C1 + O=c1cc(-c2cccc3c2Sc2ccccc2S3)oc(N2CCOCC2)c1 [KU55933] (first compound 2 µM, partner dose 5 µM)	77
O=C(/C=C/c1cccnc1)NCCCCC1CCN(C(=O)c2ccccc2)CC1 + c1cc(-c2cnn3cc(-c4ccc(OCCN5CCCCC5)cc4)cnc23)ccn1 [Dorsomorphin] (first compound 0.05 µM, partner dose 2 µM)	86.8
Cc1ccc(Nc2nccc(N(C)c3ccc4c(C)n(C)nc4c3)n2)cc1S(N)(=O)=O [Pazopanib] + O=C(O)C(=O)Nc1sc2c(c1C(=O)O)CCNC2 [TCS401] (first compound 2 µM, partner dose 8.33333 µM)	81.7
Cc1ccc(Nc2nccc(N(C)c3ccc4c(C)n(C)nc4c3)n2)cc1S(N)(=O)=O [Pazopanib] + COc1ccc(-c2ccc3c(N4CCOCC4)nc(N4C[C@@H](C)O[C@@H](C)C4)nc3n2)cc1CO [KU0063794] (first compound 2 µM, partner dose 0.1 µM)	79.4
Cc1ccc(Nc2nccc(N(C)c3ccc4c(C)n(C)nc4c3)n2)cc1S(N)(=O)=O [Pazopanib] + Cc1cc([N+](=O)[O-])ccc1NS(=O)(=O)c1cc(Cl)ccc1Cl [FH535] (first compound 2 µM, partner dose 5 µM)	57.4
O=C(/C=C/c1cccnc1)NCCCCC1CCN(C(=O)c2ccccc2)CC1 + Oc1nc(-c2ccc(C(F)(F)F)cc2)nc2c1CSCC2 [XAV939] (first compound 0.05 µM, partner dose 10 µM)	103
CC1(C)CCC(c2ccc(Cl)cc2)=C(CN2CCN(c3ccc(C(=O)NS(=O)(=O)c4ccc(N[C@H](CCN5CCOCC5)CSc5ccccc5)c(S(=O)(=O)C(F)(F)F)c4)cc3)CC2)C1 + COc1ccc(COc2ccc(Cc3cnc(N)nc3N)cc2OC)cc1 [GW2580] (first compound 2 µM, partner dose 5 µM)	84.9
O=C(/C=C/c1cccnc1)NCCCCC1CCN(C(=O)c2ccccc2)CC1 + NCC(=O)Nc1ccc(-n2nc(C(F)(F)F)cc2-c2ccc3c(ccc4ccccc43)c2)cc1 [OSU03012] (first compound 0.05 µM, partner dose 5 µM)	48
